Assay results from publication PMC4336329 (PLoS ONE, 2015).
Hit rate of the full screen: of about 310,000 compounds, about 14,000 (4.5%) showed an effect of 50% or more. Effects have a minus sign here. The list shows a part of the results.

What follows are molecules tested against human ether-à-go-go-related gene (hERG) potassium channel (human, UniProt Q12809) (assay: primary screen, population patch clamp on CHO cells stably expressing hERG).
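Note: peak tail current of the secondary pulse compared with the same well before compound.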

human ether-à-go-go-related gene (hERG) potassium channel, sequence (Q12809 whole entry, looked up): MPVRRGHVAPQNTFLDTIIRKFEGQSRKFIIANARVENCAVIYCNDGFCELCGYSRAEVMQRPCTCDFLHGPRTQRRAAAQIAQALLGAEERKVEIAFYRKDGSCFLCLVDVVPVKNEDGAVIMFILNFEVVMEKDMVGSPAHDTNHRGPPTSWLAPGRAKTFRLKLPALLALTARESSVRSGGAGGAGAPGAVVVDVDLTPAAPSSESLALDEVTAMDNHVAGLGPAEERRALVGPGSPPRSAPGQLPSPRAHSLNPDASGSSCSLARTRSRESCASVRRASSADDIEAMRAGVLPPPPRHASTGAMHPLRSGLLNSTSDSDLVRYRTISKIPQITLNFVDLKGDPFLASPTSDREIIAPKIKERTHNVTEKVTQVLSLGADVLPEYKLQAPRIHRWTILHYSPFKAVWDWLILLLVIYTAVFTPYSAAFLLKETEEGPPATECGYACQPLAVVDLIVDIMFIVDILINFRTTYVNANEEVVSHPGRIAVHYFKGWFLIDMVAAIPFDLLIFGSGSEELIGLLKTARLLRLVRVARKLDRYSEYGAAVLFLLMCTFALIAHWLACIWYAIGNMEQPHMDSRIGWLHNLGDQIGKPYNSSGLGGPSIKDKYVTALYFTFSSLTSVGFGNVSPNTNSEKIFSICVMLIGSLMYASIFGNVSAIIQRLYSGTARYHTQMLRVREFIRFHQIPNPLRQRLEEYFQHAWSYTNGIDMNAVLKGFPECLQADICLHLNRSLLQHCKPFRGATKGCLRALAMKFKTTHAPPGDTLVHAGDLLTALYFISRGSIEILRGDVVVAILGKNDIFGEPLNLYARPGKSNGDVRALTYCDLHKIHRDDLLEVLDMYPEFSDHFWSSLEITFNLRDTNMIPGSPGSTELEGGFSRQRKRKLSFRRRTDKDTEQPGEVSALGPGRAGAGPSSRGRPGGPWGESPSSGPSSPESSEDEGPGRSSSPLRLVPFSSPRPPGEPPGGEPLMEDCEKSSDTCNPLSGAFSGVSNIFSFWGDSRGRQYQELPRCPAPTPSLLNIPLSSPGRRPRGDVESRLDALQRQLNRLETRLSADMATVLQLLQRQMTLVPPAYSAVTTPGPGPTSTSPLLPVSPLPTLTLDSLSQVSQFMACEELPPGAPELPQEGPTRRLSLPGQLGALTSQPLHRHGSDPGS

Structure (SMILES)	hERG current change (%, negative = inhibition) at 10uM
COC(=O)c1ccccc1NC(=O)c1ccccc1N(C)S(C)(=O)=O	7.56%
O=C(Nc1ccnc(-c2ccncc2)n1)c1ccc(F)cc1	8.55%
O=C(NCc1ccco1)C1CCN(S(=O)(=O)Cc2ccccc2)CC1	-5.29%
CCOC(=O)c1csc(NC(=O)CN2CCOCC2)n1	15.8%
O=C(NCc1ccncc1)c1cn(-c2ccccc2)nc1-c1cccnc1	-62%
COc1ccc(C2CC(=O)N(CCC[NH+](C)CCc3ccc(OC)c(OC)c3)C2)cc1.O=C([O-])C(=O)[O-] (stereo not shown)	-74.7%
Cc1onc(-c2c(F)cccc2Cl)c1C(=O)NCc1ccc2c(c1)OCO2	9.77%
CCN(CC)C(C(=O)Nc1ccc(C(C)C)cc1)c1ccc2c(c1)OCO2 (stereo not shown)	-9.99%
NC(=O)CSc1cn(Cc2cccc(F)c2)c2ccccc12	-26.7%
COc1cccc(C(=O)NC(=S)NCc2ccco2)c1	9.98%
O=C(O)CN1C(=O)C2C3CC(C2C1=O)C1C(c2ccc(F)cc2)c2sc(=O)[nH]c2SC31 (stereo not shown)	8.69%
CC1CCN(CCCCOc2ccc([N+](=O)[O-])cc2)CC1	-74.7%
Cc1nnc(N(C)C(=O)c2cccnc2)s1	8.05%
COc1ccc(-c2sc(NC(C)=O)nc2-c2ccccc2)cc1	18.8%
Cc1nc(C)c(-c2ccc(SCC(=O)Nc3cccc(Cl)c3)nn2)s1	-0.233%
COc1cc(OC)cc(C(=O)NCC2CCCN(Cc3ccc(SC)cc3)C2)c1 (stereo not shown)	-72.3%
CCOC(=O)C(C)Sc1cnccn1 (stereo not shown)	9.79%
COc1ccc2cc(CN(CC3CCCO3)S(=O)(=O)c3ccc(C(C)=O)cc3)c(=O)[nH]c2c1 (stereo not shown)	-11.4%
CC(=O)Nc1ccc2c(c1)CN(c1cc(C)ccc1C)CO2	-1.85%
Cc1cc(C(=O)N2CCC(C(F)(F)F)n3nccc32)on1 (stereo not shown)	8.4%
Br.O=S(=O)(c1ccc(-c2csc(Nc3ccc(F)cc3)n2)cc1)N1CCCC1	-1.05%
COc1ccc(-c2nc(C#N)c(NCCN(C)C)o2)cc1	-11.2%

Structure (SMILES)	hERG current change (%, negative = inhibition) at 10uM
O=C1CN(C(=O)COC(=O)CCNS(=O)(=O)c2ccc(Cl)cc2)c2ccccc2N1	-27.4%
Cc1ccc(CNC(=O)C2CCCN(S(=O)(=O)c3ccc(-n4cnnn4)cc3)C2)cc1 (stereo not shown)	-9.94%
CC(=O)c1sc(NC(=O)c2cccs2)nc1C	16%
CC1=C(C(=O)Nc2ccc(C(=O)N3CCN(c4cccc(Cl)c4)CC3)cc2)SCCO1	-4.22%
CCCOc1ccc(C(CC(=O)O)NC(=O)c2cccs2)cc1 (stereo not shown)	17.9%
CCc1nn(CC(=O)NCCN2CCN(C)CC2)c(=O)c2cc3c(OC)cccc3n12	16.1%
COC(=O)C1(C)NC(c2ccc(F)cc2)C2C(=O)N(c3ccc(C)cc3)C(=O)C21 (stereo not shown)	7.77%
O=C1CCC(=O)N1OCCCOc1ccc2c(c1)CCC2	1.61%
Cn1c(=O)c2c(ncn2CC(=O)OCC(=O)Nc2ccc(Cl)cc2)n(C)c1=O	-7.13%
O=c1cc(CSc2nnc(C3CC3)n2Cc2ccccc2)nc2sccn12	11.7%
O=C(CCS(=O)(=O)c1cccs1)Nc1ccc(C(=O)NCc2ccc(F)cc2)cc1	16.8%
CCOc1ccccc1NC(=O)c1ccc(-n2cncn2)nc1	10.7%
N#Cc1ccc(CN2CCN(C(=O)c3ccc(S(=O)(=O)NCc4ccco4)cc3)CC2)cc1	-59.8%
O=S(=O)(c1cccc(NC(=S)N2CCN(c3ccc(F)cc3)CC2)c1)C(F)F	-0.566%
CCCCn1c(=O)c(C(=O)Nc2ccccc2)c(O)c2ccccc21	10.3%
Cc1ccc(Cn2nnnc2CN2CCC(n3nnc4ccccc43)CC2)cc1.Cl	-53.9%
CCOC(=O)Cc1nnc(NC(=O)CSc2nnc3c(n2)[nH]c2ccccc23)s1	-5.61%
Cc1nsc(N)c1C(=O)O	15.9%
CSCCC(NC(=O)C1CCCC1)c1nnc2ccccn12 (stereo not shown)	8.79%
Cc1ccc(CC(=S)N2CCOCC2)cc1	6.06%
COC(=O)c1cc(S(=O)(=O)NCC(C)c2ccccc2)cn1C (stereo not shown)	-3.55%
Cc1ccc(N2C(=O)c3oc4ccccc4c(=O)c3C2c2cccc(O)c2)nc1 (stereo not shown)	5.45%

Structure (SMILES)	hERG current change (%, negative = inhibition) at 10uM
C[C@@H]1NC(=O)OC1c1ccco1 (stereo partly shown)	3.2%
Cc1ccccc1-n1c(SCC(=O)c2c(N)n(C3CC3)c(=O)[nH]c2=O)nnc1N1CCOCC1	-13.2%
CCOc1ccccc1OCC(=O)NCCc1ccc(S(N)(=O)=O)cc1	10.9%
Cc1cccc(-c2nnc(SCC#N)n2-c2ccccc2)c1	-54.7%
CCCCCc1nnc(NC(=O)c2ccc(N3CCCC3=O)cc2)s1	4.25%
O=C(NNC(=O)c1ccccc1Cl)c1ccccc1Cl	4.11%
CS(=O)(=O)N(CC(=O)N1CCC(C(N)=O)CC1)Cc1ccc(Cl)c(Cl)c1	-13.7%
Cc1ccsc1/C=N/NC(=O)c1ccc(Cn2cc(Br)cn2)o1	-4.25%
Cc1ccccc1OCCCCCCN1CCNCC1.O=C(O)C(=O)O	-1.56%
COc1ccc(C(=O)N2CCC(CCC(=O)Nc3cccc(C)c3)CC2)cc1	-68.3%
O=C(COC(=O)c1cccc(Oc2ccccc2)c1)NCc1ccco1	3.19%
O=C(CCc1ccccc1)NNC(=O)C12CC3CC(CC(C3)C1)C2	-17.8%
Cc1csc2ncnc(NNC(=O)c3ccc(Cl)cc3)c12	9.22%
CSc1ccc(S(=O)(=O)NCC(=O)OCC(=O)NCCc2ccccc2)cc1[N+](=O)[O-]	9.18%
CC1CCCCC1NC(=O)COC(=O)c1ccc2ncsc2c1 (stereo not shown)	12.1%
Cc1c(C(=O)OCC(=O)NCc2ccc3c(c2)OCO3)cccc1[N+](=O)[O-]	0.534%
CCc1ccc(NC(=O)CCCN2C(=S)NC(C)(C)CC2C)cc1 (stereo not shown)	-5.07%
Oc1c(C=Nc2ccccc2Cl)[nH]c2ccccc12	9.95%
CC(NC(=O)C(C)(C)C)c1nc2ccccc2n1C (stereo not shown)	22%
CC(C)CN(C(=O)COC(=O)CCCc1nc2ccccc2s1)c1c(N)n(Cc2ccccc2)c(=O)[nH]c1=O	-10.5%
CCC12CN3CCN(CC(C3)/C1=N/NC(N)=O)C2	21%
Cn1ncc(Cl)c1C(=O)NC1C2CC3CC(C2)CC1C3 (stereo not shown)	8.77%

Structure (SMILES)	hERG current change (%, negative = inhibition) at 10uM
CSc1ccccc1C(=O)OCC(=O)NC1CCS(=O)(=O)C1 (stereo not shown)	2.97%
CCN(CC(=O)Nc1ccc(OC)cc1)C(=O)Cc1cccs1	6.49%
CCn1c(CNC(=O)C23CC4CC(CC(C4)C2)C3)nnc1SC	15.3%
CCCC(=O)Nc1ccccc1NC(=O)CN(C)S(=O)(=O)c1ccccc1	6.95%
Cc1nc(-c2ccc(NS(=O)(=O)c3ccccc3)cc2)cs1	10.6%
CC(C)(C)OC(=O)NCCCC[C@H](NC(=O)c1nc[nH]c1C(=O)NC1CCN(C(=O)OC(C)(C)C)CC1)C(=O)OC(C)(C)C	-0.245%
O=C(O)Cn1cc(/C=C2\C(=O)NC(=O)N(c3ccc(Cl)cc3)C2=O)c2ccccc21	12.4%
O=C1/C(=C/c2ccc(N3CCCC3)cc2)NC(=S)N1C1CC1	-10%
COc1ccc(/C=C/C(=O)OCC(=O)NCCNC(=O)COC(=O)/C=C/c2ccc(OC)cc2)cc1	20.6%
Cc1ccc(-n2nc3c(=O)n(C(C)C(=O)NCc4ccc5c(c4)OCO5)nc(C)c3c2C)cc1 (stereo not shown)	1.78%
O=S(=O)(c1ccccc1)n1ccc2ccccc21	-6.14%
CC(=O)c1ccc(-n2nnnc2SCC(=O)Nc2cccc(NC(=O)c3ccco3)c2)cc1	6.89%
CCOC(=O)/C=C1\NC(=O)CS1	16.4%
O=C(CCNS(=O)(=O)c1ccc(Cl)cc1)Nc1ccncc1	6.41%
CC(C)(C)OC(=O)CNC(=O)c1[nH]cnc1C(=O)N[C@@H](Cc1ccccc1)C(=O)OCc1ccccc1	12.7%
CCN(CC)c1ccc(/C=N/NC(=O)c2ccoc2C)c(O)c1	0.0712%
O=C(c1cnn(Cc2ccccc2)c1)N1CCN(S(=O)(=O)/C=C/c2ccccc2)CC1	-34.4%
Cc1ccc(-n2nnnc2SCC(=O)Nc2ncc(Cc3ccccc3Cl)s2)cc1	0.671%
COc1cccc(C2CC(c3cccs3)=NN2C(=O)CSc2nc3c(cnn3-c3ccc(F)cc3)c(=O)[nH]2)c1OC (stereo not shown)	6.18%
O=C(c1ccc(N2CCCC2=O)cc1)N1CCCCCC1	9.74%
Nn1c(CSc2ccccn2)nc2ccccc2c1=O	7.54%
COc1ccccc1-c1nnc(SCC(=O)N2CCCCC2)o1	5.84%
